Data as given in PubChem BioAssay AID360 (National Center for Advancing Translational Sciences (NCATS), 2006).
About 550 (1.1%) of roughly 48,000 compounds were called active. Another 4% or so got no clear call; they are omitted. No stated cut-off is given here; in the data, active means potency below about 15 µM; inconclusive means mostly about 16 µM to 33 µM; inactive means weaker than that. This is one part of the list.

Target: Lysosomal acid glucosylceramidase (Homo sapiens) (UniProt P04062)
Sequence of UniProt P04062 (P04062 whole entry, looked up): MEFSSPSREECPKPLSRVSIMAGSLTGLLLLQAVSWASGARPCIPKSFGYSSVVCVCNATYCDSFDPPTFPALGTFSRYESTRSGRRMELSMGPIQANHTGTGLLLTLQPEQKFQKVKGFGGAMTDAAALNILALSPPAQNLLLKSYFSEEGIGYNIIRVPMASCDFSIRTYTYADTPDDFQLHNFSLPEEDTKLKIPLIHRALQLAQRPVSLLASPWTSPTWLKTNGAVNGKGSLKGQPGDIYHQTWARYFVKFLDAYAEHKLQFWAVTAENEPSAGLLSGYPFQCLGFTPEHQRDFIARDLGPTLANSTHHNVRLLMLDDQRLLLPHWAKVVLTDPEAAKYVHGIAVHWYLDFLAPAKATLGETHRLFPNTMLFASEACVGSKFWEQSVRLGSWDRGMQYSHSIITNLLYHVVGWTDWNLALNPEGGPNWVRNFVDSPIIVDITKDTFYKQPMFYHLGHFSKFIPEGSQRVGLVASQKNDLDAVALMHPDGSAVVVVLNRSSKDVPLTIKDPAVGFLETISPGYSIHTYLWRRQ
Assay: Glucocerebrosidase;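 further: the screen sought inhibitors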
Details: purified enzyme, resorufin glucoside fluorescence (screen aimed at inhibitors), 20 min
Procedure, shortened: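 Normal human glucocerebrosidase (0.2 nM final) was assayed with resorufin β-D-glucopyranoside (30 uM final) in 50mM citric acid/KH2PO4, 10mM sodium taurocholate, 0.01% tween-20, pH 5.9. Compounds were titrated; fluorescence (Ex 548, Em 600) read after 20 min at RT.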
Potency means the concentration at half of the fitted maximal effect.

Potency, inactive:
CC(NC(=O)CSc1n[nH]c(=O)n1C1CC1)C12CC3CC(CC(C3)C1)C2 (stereo not given) > 76.9 µM
CC(=O)/C(CN1CCCCC1)=N\O > 76.9 µM
Cc1ccc(S(=O)(=O)CC(=O)N(C)C)cc1 > 76.9 µM
COc1ccc(CCn2c(=N)c(C(=O)N3CCN(C)CC3)cc3c(=O)n4ccccc4nc32)cc1 > 76.9 µM
COCC(C)n1c(C)cc(C(=O)COC(=O)c2nc3nc(C)cc(C)n3n2)c1C (stereo not given) > 76.9 µM
COc1cc(-c2nnc(SCc3ccccc3Cl)o2)cc(OC)c1OC > 76.9 µM
CC(C)NC(=O)CN1CCC(O)(c2ccccc2)CC1 > 76.9 µM
Cc1ccc(-c2nnc(SCC(=O)N3c4ccccc4NC(=O)C3(C)C)n2N)cc1 > 76.9 µM
Cc1ccc(C)c(-n2c(Cc3cc(=O)[nH]c(=O)[nH]3)nnc2SCC(=O)NCc2ccco2)c1 > 76.9 µM
Cc1noc(C)c1S(=O)(=O)N1CCCC(C(=O)NCCc2ccccc2)C1 (stereo not given) > 76.9 µM
N#Cc1c(SCC(N)=O)nsc1SCc1ccccc1Cl > 76.9 µM
Cc1cnnc2c1-c1nonc1CC2 > 76.9 µM
c1ccc2[nH]c(SCc3cscn3)nc2c1 > 76.9 µM
CCOC(=O)c1ccoc1CSCc1ccc(C(=O)OC)o1 > 76.9 µM
COc1ccc(OC)c(CNC(=O)C2CCCN(C(=O)N(C)C)C2)c1 (stereo not given) > 76.9 µM
COc1ccccc1-n1cnc2cc(NCc3ccco3)ccc21 > 76.9 µM
O=C(CN1CCN(c2ncccn2)CC1)NCCC1=CCCCC1 > 76.9 µM
Cc1nn(-c2ccccc2)c(C)c1C(=O)OCC(=O)Nc1ccc2c(c1)OCO2 > 76.9 µM
Cc1noc(C)c1S(=O)(=O)N1CCC(C(=O)N2CCN(C3CCCC3)CC2)CC1 > 76.9 µM
CCOC(=O)CNS(=O)(=O)c1c(C)noc1C > 76.9 µM
O=C1CC(c2ccccc2)n2nc(NC(=O)c3cccs3)nc2N1 (stereo not given) > 76.9 µM
O=C(c1ccc(NS(=O)(=O)c2ccccc2)cc1)N1CCN(Cc2ccc3c(c2)OCO3)CC1 > 76.9 µM
COc1ccc(C(=O)N2c3ccc(F)cc3CCC2C)cc1OC (stereo not given) > 76.9 µM
CC(CSc1nc2ccccc2s1)Cn1c(N2CCCC2)nc2c1c(=O)[nH]c(=O)n2C (stereo not given) > 76.9 µM
COC(=O)c1ccc(C)c(NC(=O)CN2C(=O)c3ccccc3S2(=O)=O)c1 > 76.9 µM
